Results reported in PMC4336329 (PLoS ONE, 2015).
About 2,200 (0.71%) of roughly 310,000 compounds showed an effect of 50% or more. Effects have a minus sign here. Some of the results follow.

Target: human ether-à-go-go-related gene (hERG) potassium channel (human, UniProt Q12809)
Assay: primary screen, population patch clamp on CHO cells stably expressing hERG

human ether-à-go-go-related gene (hERG) potassium channel, sequence (Q12809 whole entry, looked up): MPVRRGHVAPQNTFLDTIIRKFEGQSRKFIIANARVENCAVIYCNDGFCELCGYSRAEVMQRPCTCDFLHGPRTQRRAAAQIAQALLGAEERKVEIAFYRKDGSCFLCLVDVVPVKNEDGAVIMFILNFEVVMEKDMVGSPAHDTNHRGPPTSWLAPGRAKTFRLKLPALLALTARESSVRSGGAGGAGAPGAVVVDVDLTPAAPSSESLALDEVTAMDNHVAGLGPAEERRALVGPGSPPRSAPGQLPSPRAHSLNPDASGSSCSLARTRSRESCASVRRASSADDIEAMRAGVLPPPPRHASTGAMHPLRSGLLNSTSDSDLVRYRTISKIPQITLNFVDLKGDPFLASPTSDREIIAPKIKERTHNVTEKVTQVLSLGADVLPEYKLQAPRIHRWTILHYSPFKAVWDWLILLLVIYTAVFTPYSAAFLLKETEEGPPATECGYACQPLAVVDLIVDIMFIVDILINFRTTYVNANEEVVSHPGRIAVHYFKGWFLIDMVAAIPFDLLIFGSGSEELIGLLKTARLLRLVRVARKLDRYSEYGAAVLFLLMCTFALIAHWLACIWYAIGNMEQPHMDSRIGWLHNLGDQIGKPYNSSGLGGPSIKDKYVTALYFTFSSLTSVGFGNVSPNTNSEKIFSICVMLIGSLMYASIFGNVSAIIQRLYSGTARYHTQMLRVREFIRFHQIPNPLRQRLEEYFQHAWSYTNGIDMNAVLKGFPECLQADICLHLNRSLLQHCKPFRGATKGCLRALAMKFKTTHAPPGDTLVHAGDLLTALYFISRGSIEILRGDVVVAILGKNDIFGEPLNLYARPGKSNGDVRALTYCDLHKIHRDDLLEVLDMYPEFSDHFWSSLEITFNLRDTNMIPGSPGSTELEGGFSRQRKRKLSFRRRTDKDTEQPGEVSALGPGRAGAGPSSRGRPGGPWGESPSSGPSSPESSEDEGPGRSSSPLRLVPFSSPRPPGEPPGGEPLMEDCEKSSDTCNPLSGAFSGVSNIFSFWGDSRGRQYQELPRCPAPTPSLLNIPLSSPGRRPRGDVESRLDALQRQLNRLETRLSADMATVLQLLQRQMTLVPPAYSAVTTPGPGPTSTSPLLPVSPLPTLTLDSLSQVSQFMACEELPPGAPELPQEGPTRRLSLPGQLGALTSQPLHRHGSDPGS

Row | Compound | hERG current change (%, negative = inhibition) at 1uM [%]
1 | O=c1nc(-c2ccccc2)cn[nH]1 | -0.726
2 | O=C1NC(=O)N(Cc2ccco2)C(=O)/C1=C/c1ccc(-c2cccc([N+](=O)[O-])c2)o1 | 6.53
3 | COc1cc(C)ccc1OCc1cc(C(=O)NCCN2CCCC(O)C2)no1 (centres unmarked) | 1.51
4 | O=C(Cc1coc2cc3c(cc12)CCC3)OCc1cc(=O)n2c(n1)sc1ccccc12 | 6.78
5 | CCCn1c(CCNC(=O)c2cccs2)nc2ccccc21 | -5.46
6 | O=C(NCc1cccs1)c1cccn2c(=O)c3sccc3nc12 | -0.662
7 | Cc1cc(C)n2nc(C(=O)NCc3ccccc3)nc2n1 | -0.707
8 | CC1=C(C(=O)OCc2ccccc2)C(c2cccc3ccccc23)NC(=O)N1CCCC(=O)O (centres unmarked) | 21.4
9 | COc1ccc(CCNC(=O)CCN2C(=O)[C@@H]3Cc4ccccc4CN3C2=O)cc1OC | 21.2
10 | CCOCCCNC(=O)C(NC(=O)CC1NC(=O)NC1=O)c1ccc(Cl)cc1 (centres unmarked) | 2.3
11 | CC1=C(C(=O)Nc2ccccc2C)C2(CCCCC2)C(C(N)=O)C(=S)N1 (centres unmarked) | -1.61
12 | CCCCN(Cc1nc2ccccc2c(=O)[nH]1)C(=O)CN1C(=O)NC2(CCCCC2)C1=O | -7.66
13 | O=C(CCS(=O)(=O)c1ccc(Cl)cc1)N1CCN(c2ccccc2F)CC1 | 0.539
14 | Oc1ccc2c(ccc3[nH]cnc32)c1 | 19.6
15 | CN(CC(=O)Nc1ccccc1Br)C(=O)c1ccc2c(=O)n3c(nc2c1)CCC3 | 6.85
16 | CCC(C)C(=O)Nc1nc(C)c(-c2csc(Nc3cc(Cl)ccc3OC)n2)s1 (centres unmarked) | 10.8
17 | O=C(C[n+]1ccccc1)N1CCCc2ccccc21.[Cl-] | 12
18 | Cn1cc(SCC(=O)N2CCOCC2)c2ccccc21 | 10.6
19 | Cc1ccnc(NS(=O)(=O)c2ccc(NC(=O)COc3ccccc3)cc2)n1 | 20.7
20 | Cc1cccc(N2CCN(C(=O)c3ccc(NS(=O)(=O)c4c(C)noc4C)cc3)CC2)c1C | -2.07
21 | CC(=O)Nc1ccc(NC(=O)C(C)Oc2ccc(Cl)cc2Cl)cc1 (centres unmarked) | 12.2
22 | COc1ccc(Br)cc1C(=O)NC(=S)Nc1cc(-c2nc3ccccc3[nH]2)ccc1C | 6.11

Row | Compound | hERG current change (%, negative = inhibition) at 1uM [%]
23 | O=c1[nH]c2ccccc2cc1-c1nnn(-c2ccc(F)cc2)n1 | -2.21
24 | O=C(NC(=S)N1CCN(c2ccc([N+](=O)[O-])cc2)CC1)c1ccccc1 | 6.36
25 | CCOc1ccccc1NC(=O)c1cccc(NC(=O)CC(c2ccccc2)c2ccccc2)c1 | -16.5
26 | Cn1c(C(=O)O)c(C=O)c2ccccc21 | 23.4
27 | CCC(=O)NNc1nc2c(F)cccc2s1 | 11.9
28 | Cc1ccc(NC(=O)COC(=O)C2=COCCO2)cc1 | 10.1
29 | CCCCn1c(N)c(N(CC)C(=O)CSCc2ccc(C)cc2)c(=O)[nH]c1=O | 6.96
30 | Cc1ccc(S(=O)(=O)N2CCC(C(=O)NCC3CCCO3)CC2)cc1 (centres unmarked) | 13.2
31 | CC(=O)Nc1ccc(S(=O)(=O)Nc2cccc(-c3nc4ccccc4o3)c2)cc1 | 7.6
32 | Cc1ccc(SCc2cn3cccnc3n2)cc1 | 12.6
33 | CCc1ccc(C(=O)COC(=O)c2cc([N+](=O)[O-])ccc2N2CCOCC2)cc1 | 1.66
34 | CC1CN(C2=Nc3cccc4cccc2c34)CC(C)O1 (centres unmarked) | 1.35
35 | Cc1cc(=O)oc2c3c(cc(OCC(=O)NCCCn4ccnc4)c12)OC(C)(C)CC3 | -7.59
36 | COC(=O)c1sccc1NC(=O)c1cccc(F)c1 | 24
37 | CCOC(=O)c1ccc(N2C(=O)C(O)=C(C(C)=O)C2c2ccccn2)cc1 (centres unmarked) | 4.5
38 | NC(=Nc1ccc(N)cc1)C(N)=Nc1ccc(N)cc1 | 10.8
39 | Cc1nc(C)n(C(C)CNC(=O)c2cccc(Br)c2)n1 (centres unmarked) | 12.9
40 | O=C(NCC(O)COc1ccc([N+](=O)[O-])cc1)Nc1ccccc1 (centres unmarked) | -8.26
41 | Cc1cc(C)cc(C(=O)NCC(=O)N(C)CCOc2ccccc2)c1 | 17.5
42 | C=C1C2C[C@H](O)C(C)(C)[C@@]2(O)[C@H](O)C[C@]23C[C@@](C)(O)[C@H](CC[C@H]12)[C@H]3OC(C)=O (some centres unmarked) | 18.8
43 | CCN(c1ccc(OC)cc1)S(=O)(=O)c1nnc(NC(=O)c2ccco2)s1 | 15.3
44 | CS(=O)(=O)N(CC(=O)N1CCN(c2ccccc2)CC1)c1ccccc1Cl | 11.6
